Test system: Sprague-Dawley rats
Test: Collateral diameters in the ROI, coronary microvascular imaging with micro-CT
Conditions: n=3
Description: In addition Micro-CT is used as a further endpoint to image collaterals. […] Collateral arterial network morphology is analyzed with Amira 5.2.2 software (Visage Imaging, Berlin, Germany).

## CC(=O)Oc1ccccc1C(=O)O [ASA+NTG-PLACEBO]
  Collateral diameters of ROI: 97.1±8.6 μm
